Reference: PMC4336329 (PLoS ONE, 2015)
The whole screen tested about 310,000 compounds, of which about 2,200 (0.71%) showed an effect of 50% or more. The effect is printed as a negative number. This is one part of the list.

Target: human ether-à-go-go-related gene (hERG) potassium channel (human, UniProt Q12809)
Experiment: primary screen, population patch clamp on CHO cells stably expressing hERG

human ether-à-go-go-related gene (hERG) potassium channel, sequence (Q12809 whole entry, looked up): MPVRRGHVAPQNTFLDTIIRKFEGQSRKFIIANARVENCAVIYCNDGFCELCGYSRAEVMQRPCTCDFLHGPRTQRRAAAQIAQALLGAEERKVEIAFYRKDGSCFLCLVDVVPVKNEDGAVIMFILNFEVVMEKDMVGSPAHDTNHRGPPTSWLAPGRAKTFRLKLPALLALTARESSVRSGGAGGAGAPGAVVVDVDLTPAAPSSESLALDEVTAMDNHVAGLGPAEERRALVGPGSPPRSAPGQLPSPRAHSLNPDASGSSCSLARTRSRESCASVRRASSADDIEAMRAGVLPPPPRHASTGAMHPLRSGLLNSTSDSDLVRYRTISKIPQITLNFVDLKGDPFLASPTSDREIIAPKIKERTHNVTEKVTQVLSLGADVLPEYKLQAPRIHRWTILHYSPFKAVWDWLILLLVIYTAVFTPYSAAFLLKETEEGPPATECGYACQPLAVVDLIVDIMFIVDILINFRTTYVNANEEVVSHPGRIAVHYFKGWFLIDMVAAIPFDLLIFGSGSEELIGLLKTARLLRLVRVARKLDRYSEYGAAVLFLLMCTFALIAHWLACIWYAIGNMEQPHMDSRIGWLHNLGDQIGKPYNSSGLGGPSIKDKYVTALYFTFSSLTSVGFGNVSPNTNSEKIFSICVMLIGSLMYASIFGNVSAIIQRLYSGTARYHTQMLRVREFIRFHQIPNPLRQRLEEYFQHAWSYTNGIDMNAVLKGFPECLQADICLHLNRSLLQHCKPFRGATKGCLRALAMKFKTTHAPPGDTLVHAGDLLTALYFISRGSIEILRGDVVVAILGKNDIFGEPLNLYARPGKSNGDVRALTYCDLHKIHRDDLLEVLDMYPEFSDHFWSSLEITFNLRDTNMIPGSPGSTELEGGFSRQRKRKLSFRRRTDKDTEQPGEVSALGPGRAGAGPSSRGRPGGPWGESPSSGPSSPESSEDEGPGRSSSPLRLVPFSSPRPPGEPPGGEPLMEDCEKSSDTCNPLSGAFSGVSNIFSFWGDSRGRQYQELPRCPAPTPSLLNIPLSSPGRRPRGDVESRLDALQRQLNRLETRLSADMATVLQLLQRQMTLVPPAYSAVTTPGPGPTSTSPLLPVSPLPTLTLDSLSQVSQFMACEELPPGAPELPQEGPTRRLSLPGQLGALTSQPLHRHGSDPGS

SMILES	hERG current change (%, negative = inhibition) at 1uM [%]
Cc1cc(C)c2c(N)c(C(=O)Nc3c(C)n(C)n(-c4ccccc4)c3=O)sc2n1	22.9
Oc1ccc(Nc2nnc(-c3ccc(O)cc3)c3ccccc23)cc1	5.28
N/C(=N\OS(=O)(=O)c1ccccc1)c1ccncc1	10.5
CN(C(=O)c1ccc(NC(=O)Cc2ccc(NC(=O)C3CCCN(C(=O)C4CCCCC4)C3)cc2)cc1)C1CC1 (centres unmarked)	12.6
COc1cccc(CNC(=O)c2cc(S(=O)(=O)N3CCOCC3)ccc2N2CCCC2)c1	6.17
O=C(CCNC(=O)c1ccc(Br)cc1)NCC(c1ccco1)N1CCCCC1 (centres unmarked)	3.27
O=C(CSc1ccc(-c2nc3ccccc3[nH]2)cn1)Nc1ccc(S(=O)(=O)N2CCCC2)cc1	5.9
COc1cccc(N2CC(C(=O)Nc3c(C)cccc3C)CC2=O)c1 (centres unmarked)	3.99
CC1(C)C(=O)OC(c2ccccc2)C(C)(C)C1=O (centres unmarked)	-6.15
CCCCC#Cc1cncc(C(=O)NN)c1	9.47
COc1ccc(OCC(=O)Nc2ccccc2C(=O)Nc2ccc(C(=O)O)cc2)cc1	6.89
C=CCn1c(SCC(=O)Nc2nc3ccccc3s2)nnc1-c1ccccc1O	6.55
CCOC(=O)c1c(C)[nH]c(C(=O)COC(=O)CSCC(=O)N(CC)CC)c1C	7.65
Cn1nnnc1SCC(=O)N1CCN(c2cccc(Cl)c2)CC1	-3.97
CC(C)Oc1ccc(C(=O)Nc2ccc([N+](=O)[O-])cc2)cc1	6.66
CC(C)NC(=O)C1CCN(C(=O)c2cc3sccc3n2Cc2ccc(F)cc2)CC1	3.39
CCc1nc(SCC(=O)NCCc2ccccc2)c2oc3ccccc3c2n1	0.134
CC(C)c1ccc2[nH]c(O)c(N=NC(=S)NCCc3ccccc3)c2c1	8.3
Cc1ccc(NCCC(=O)c2cccc([N+](=O)[O-])c2)c(C)c1	12.4
Cc1ccc(Nc2cc(C(=O)NCCCN3CCOCC3)c3ccccc3n2)cc1C	10
COCC(C)N1CCC(Oc2ccc(C(=O)NCc3ccccn3)cc2)CC1 (centres unmarked)	22.3
NC(=O)CC(NC(=O)Cc1ccc(Br)cc1)c1ccc(NCCN2CCOCC2)c([N+](=O)[O-])c1 (centres unmarked)	17.1
COc1ccccc1Nc1nc(-c2ccc([N+](=O)[O-])cc2)nc2ccccc12	6.46
